Sequences and labels used below:
B1: LINE1-full (parent)
chain: UACGUAGGUGGUUUUCCCCUGAUAGUGCUAAGGGGGCCUGGAAGUUUGGACUGGGCAGAGCUCAACACAGCGUGGCAAAGUGGCUGUGGCUAGACUGCCUCUCUGGAUUCCUCGUCACUCAGCAGGGCAUCUCUGAGAGAAAUGCC

Read counts are not given, so values of variants with three or more changes are uncertain.

This data set covers variants of B1. The data set is described as follows: self-cleavage, relative activity (ratio to wild type); higher = more cleavage; in vitro, sequencing; the parent is a self-cleaving ribozyme.
As to UACGUAGGUGGUUUUCCCCUGAUAGUGCUAAGGGGGCCUGGAAGUUUGCACUGGGCAGAGCUCAACACGGCGUGGCAACGUGGCUGUGGCUAGACUGCCUCUCUGGAUUCCUCGUCACUCAGCAGGGCAUCUCUGAGAGAAAUGCC [G49C A69G A79C], the self-cleavage came out at 1.02.

UACGUAGGUGGUUUUCCCCUGAUAGUGCUAAGGGGGCCUGGAAGUUUGGGCUGGGCAGAGCUCGACACGGCGUGGCAAAGUGGCUGUGGCUAGACUGCCUCUCUGGAUUCCUCGUCACUCAGCAGGGCAUCUCUGAGAGAAAUGCC [A50G A64G A69G]: the self-cleavage was found to be 0.

On to UACGUAGGUGGUUUUCCCCUGAUAGUGCUAAGGGGGCCUGGAAGUUUGAACUGGGCAGAGCUCAACACAGCGUGGCAAAGUGGCUGUGGCUAGACUGCCUCUCUGGAUUCCUCGUCACUCAGCAGGGCACCUCUGAGUGAAAUGCC [G49A U130C A138U], for which the self-cleavage was determined as 0.76.

Turning to UACGUAGGUGGUUUUCCCCUGAUAGUGCUAAGGGGGCCUGGAAGUUUGUACUGGCCAGAGCUCAACACAGCGUGGCAAAGUGGCUGUGGCUAGACUGCCUCUCUGGAUUCCUCGUCUCUCAGCAGGGCAUCUCUGAGAGAAAUGCC [G49U G55C A117U], the self-cleavage stood at 0.03.

As to UACGUAGGUGGUUUUCCCCUGAUAGUGCUAAGGGGGCCUGGAAGUUUGGCCUGGGCAGAGCUCAACUCAGCGUGGCAAAGUGGCUGUGGCUAGACUGCCUCUCUGGAUUCCUCAUCACUCGGCAGGGCAUCUCUGAGAGAAAUGCC [A50C A67U G114A A121G], the self-cleavage was 0.05.

As to UACGUAGGUGGUUUUCCCCUGAUAGUGCUAAGGGGGCCUGGAAGUUUGAACUGGGCAGAGCUCAACACAGCGUGGCAAAGUGGCUGCGGCUAGACUGCCUCUCUGGAUUCCUCGUCACUCAGCAGGGCAUCUCUGAGAGGAAUGCC [G49A U87C A140G], the self-cleavage was found to be 0.

Take UACGUAGGUGGUUUUCCCCUGAUAGUGCUAAGGGGGCCUGGAAGUUUGGCCUGGGCAGAGCUCAACACAGCGUGGCAAAGUGGCUGUGUCUAGACUGCCUCUCUGGAUCCCUCGUCACUCAGCAGGGCAUCUCUGAGAGAAAUGCC [A50C G89U U109C]: the self-cleavage is 0.05.

UACGUAGGUGGUUUUCCCCUGAUAGUGCUAAGGGGGCCUGGAAGUUUGAACUGGGCAGAGCUCAACACAGCGUGGCAAAGUGGCUGUGGCCAGACUGCCUCUCUGGUUUCCUCGUCACUCAGCAGGGCAUCUCUGAGGGAAAUGCC [G49A U91C A107U A138G]: the self-cleavage came to 0.34.

On to UACGUAGGUGGUUUUCCCCUGAUAGUGCUAAGGGGGCCUGGAAGUUUGAACCGGGCAGAGCUCAACACAGCGUGGCAAAGUGGCUGUGGCUAGACUGCCUCUCUGGAUUCCUCGUCACUCAGCAGGGCGUCUCUGAGAGAAAUGCC [G49A U52C A129G], for which the self-cleavage stood at 0.66.

As to UACGUAGGUGGUUUUCCCCUGAUAGUGCUAAGGGGGCCUGGAAGUUUGGGCUGGGCGGAGCUCAACACAGCGUGGCAAAGCGGCUGUGGCUAGACUGCCUCUCUGGAUUCCUCGUCACUCAGCAGGGCAUCUCUGAGAGAAAUGCC [A50G A57G U81C], the self-cleavage came to 1.31.

Regarding UACGUAGGUGGUUUUCCCCUGAUAGUGCUAAGGGGGCCUGGAAGUUUGUACUGGGCAGAGCUCUACACAGCGAGGCAAAGUGGCUGUGGCUAGACUGCCUCUCUGGAUUCCUCGUCACUCAGCAGGGCAUCUCUGAGAGAAAUGCC [G49U A64U U73A], the self-cleavage came out at 0.27.

Take UACGUAGGUGGUUUUCCCCUGAUAGUGCUAAGGGGGCCUGGAAGUUUGAACUGGGCAGAGCCCAACACAGCGUGGCAAAGUGGCUGCGGCUAGACUGCCUCUCUGGAUUCCUCGUCACUCAGCAGGGCAUCUCUGAGAGAAAUGCC [G49A U62C U87C]: the self-cleavage came to 0.08.

Regarding UACGUAGGUGGUUUUCCCCUGAUAGUGCUAAGGGGGCCUGGAAGUUUGUACUGGGCAGAGCUCAACACAGCGUGGCAAAGUGGCCGUGGCUAGACUGCCUCUCUGGAUUCCUCGUCACUCAGCAGGGCAUCUCUGUGAGAAAUGCC [G49U U85C A136U], the self-cleavage is 0.13.

For the variant UACGUAGGUGGUUUUCCCCUGAUAGUGCUAAGGGGGCCUGGAAGUUUGAACUGGGCAGAGCUCAACACAGCGUGGCAAAGUGGCUGUGGCUAGACUGCCUCUCUGGAUUCCUCGUCACUCAGCAGGGCAUCACUGAGAGAGAUGCC [G49A U132A A141G], the self-cleavage came out at 1.08.

With UACGUAGGUGGUUUUCCCCUGAUAGUGCUAAGGGGGCCUGGAAGUUUGGGCUGGGCGGUGCUCAACACAGCGUGACAAAGUGGCUGUGGCUAGACUGCCUCUCUGGAUUCCUCGUCACUCAGCAGGGCAUCUCUGAGAGAAAUGCC [A50G A57G A59U G75A], the self-cleavage turned out to be 0.41.

Consider UACGUAGGUGGUUUUCCCCUGAUAGUGCUAAGGGGGCCUGGAAGUUUGGGCUGGGCGGAGCUCAACACAGCGUGGCAAAGUGGCUGUGGCUAGACUGCCUCUCUGGAUUCCUCGUCACUCAGCAGGGCACCUCAGAGAGAAAUGCC [A50G A57G U130C U134A], for which the self-cleavage was 0.71.

As to UACGUAGGUGGUUUUCCCCUGAUAGUGCUAAGGGGGCCUGGAAGUUUGGCCUGGGCAGAGCUCAACACAGCGUGGCAAGGUGGCUGAGGCUAGACUGCCUCUCUGGAUUCCUCGUCACUCAGCAGGGCAUCUCUGAGAGAAAUGCC [A50C A79G U87A], the self-cleavage was found to be 0.

Regarding UACGUAGGUGGUUUUCCCCUGAUAGUGCUAAGGGGGCCUGGAAGUUUGUACUGGGCAGAGCUCAACACAGCGCGGCAAAGUGGCUGUGGCUAGACUGCCUCUCUGGAUUCCUCGUCACUCAGCAGGGCAUCCCUGGGAGAAAUGCC [G49U U73C U132C A136G], the self-cleavage is 1.41.

As for UACGUAGGUGGUUUUCCCCUGAUAGUGCUAAGGGGGCCUGGAAGUUUGUACUGGGCAGAGCUCAACACGGCGUGGCAGAGAGGCUGUGGCUAGACUGCCUCUCUGGAUUCCUCGUCACUCAGCAGGGCAUCUCUGAGAGAAAUGCC [G49U A69G A78G U81A], the self-cleavage worked out at 0.06.

Take UACGUAGGUGGUUUUCCCCUGAUAGUGCUAAGGGGGCCUGGAAGUUUGGCCUGGGCAGAGCUCAACACAGCGUGGCAAAGUGGCUGUGGCUAGACUGCCUCUCUGGAUUCCUCGUCACUCAGCAGGGCAUCUCUGGGAGAAGUGCC [A50C A136G A142G]: the self-cleavage came to 0.94.

Values taken from the RNAGym collection of RNA variant scans (doi:10.7554/elife.90254).
